We go through seven molecules from PMC4599859.

The target of assay [1] is T1, IBR5^C129S fused with the pGBKT7 vector (Arabidopsis thaliana) (UniProt Q84JU4).
T1 sequence: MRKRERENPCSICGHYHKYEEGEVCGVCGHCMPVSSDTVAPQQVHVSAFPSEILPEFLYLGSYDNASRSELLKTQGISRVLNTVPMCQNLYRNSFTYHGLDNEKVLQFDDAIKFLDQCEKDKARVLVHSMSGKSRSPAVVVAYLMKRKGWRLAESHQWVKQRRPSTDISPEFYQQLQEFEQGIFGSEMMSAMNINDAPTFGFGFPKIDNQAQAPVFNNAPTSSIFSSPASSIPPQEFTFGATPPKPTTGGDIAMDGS
Description: two-hybrid; IBR5 or IBR5^C129S in pGBKT7 (bait), R protein domains in pGADT7 (prey); yeast AH109; interaction tested on SD-Trp-Leu-His-Ade medium.

Assay [2] has as its target T2, IBR5 (Indole-3-Butyric Acid Response 5) fused with the pGBKT7 vector (Arabidopsis thaliana) (UniProt Q84JU4).
T2 sequence: T1 sequence with S129C
The assay is described as above.

The target of assay [3] is T3, full-length RPS4-Myc (Super:RPS4-Myc) (Arabidopsis thaliana) (UniProt Q9XGM3).
T3 sequence: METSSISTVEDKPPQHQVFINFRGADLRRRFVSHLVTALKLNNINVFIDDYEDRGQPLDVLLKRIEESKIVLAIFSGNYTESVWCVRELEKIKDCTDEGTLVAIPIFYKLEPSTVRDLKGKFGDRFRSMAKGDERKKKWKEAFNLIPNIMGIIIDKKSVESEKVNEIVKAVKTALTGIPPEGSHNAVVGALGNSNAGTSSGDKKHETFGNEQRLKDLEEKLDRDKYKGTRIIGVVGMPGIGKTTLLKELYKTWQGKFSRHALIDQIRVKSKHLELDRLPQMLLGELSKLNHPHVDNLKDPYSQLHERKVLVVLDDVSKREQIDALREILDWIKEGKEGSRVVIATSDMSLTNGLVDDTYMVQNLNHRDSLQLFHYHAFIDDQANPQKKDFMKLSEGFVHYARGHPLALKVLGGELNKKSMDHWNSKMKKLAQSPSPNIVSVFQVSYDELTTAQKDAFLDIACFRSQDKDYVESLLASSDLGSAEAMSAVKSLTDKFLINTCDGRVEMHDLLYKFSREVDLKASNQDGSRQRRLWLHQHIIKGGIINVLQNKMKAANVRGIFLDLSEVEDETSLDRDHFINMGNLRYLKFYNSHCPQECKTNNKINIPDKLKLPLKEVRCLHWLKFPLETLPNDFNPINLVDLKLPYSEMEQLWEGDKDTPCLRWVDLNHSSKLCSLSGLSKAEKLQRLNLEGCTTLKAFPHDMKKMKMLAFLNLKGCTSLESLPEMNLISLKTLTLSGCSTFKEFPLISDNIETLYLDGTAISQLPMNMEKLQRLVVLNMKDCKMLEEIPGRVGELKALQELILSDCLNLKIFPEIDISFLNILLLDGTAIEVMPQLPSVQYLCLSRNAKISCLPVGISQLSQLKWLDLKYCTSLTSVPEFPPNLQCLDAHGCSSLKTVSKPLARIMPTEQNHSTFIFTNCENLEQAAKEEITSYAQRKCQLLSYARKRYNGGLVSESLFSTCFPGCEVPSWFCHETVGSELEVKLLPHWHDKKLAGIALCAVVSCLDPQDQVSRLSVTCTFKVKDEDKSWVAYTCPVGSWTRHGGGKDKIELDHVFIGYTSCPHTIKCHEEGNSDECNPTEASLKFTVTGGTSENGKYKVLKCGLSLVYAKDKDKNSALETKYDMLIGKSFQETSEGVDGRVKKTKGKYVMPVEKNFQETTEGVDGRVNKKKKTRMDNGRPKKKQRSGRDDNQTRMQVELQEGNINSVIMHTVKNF
Kind of assay: co-IP; two constructs co-expressed in N. benthamiana leaves; extract in 150 mM NaCl, 10 mM Tris-HCl pH 7.6, 2 mM EDTA, 0.5% NP-40; anti-Myc beads, 4°C, 2 h; blot with anti-HA or anti-Flag.

Assay [4] deals with T4, full-length RPM1-Myc (Super:RPM1-Myc) (Arabidopsis thaliana) (UniProt Q39214).
T4 sequence: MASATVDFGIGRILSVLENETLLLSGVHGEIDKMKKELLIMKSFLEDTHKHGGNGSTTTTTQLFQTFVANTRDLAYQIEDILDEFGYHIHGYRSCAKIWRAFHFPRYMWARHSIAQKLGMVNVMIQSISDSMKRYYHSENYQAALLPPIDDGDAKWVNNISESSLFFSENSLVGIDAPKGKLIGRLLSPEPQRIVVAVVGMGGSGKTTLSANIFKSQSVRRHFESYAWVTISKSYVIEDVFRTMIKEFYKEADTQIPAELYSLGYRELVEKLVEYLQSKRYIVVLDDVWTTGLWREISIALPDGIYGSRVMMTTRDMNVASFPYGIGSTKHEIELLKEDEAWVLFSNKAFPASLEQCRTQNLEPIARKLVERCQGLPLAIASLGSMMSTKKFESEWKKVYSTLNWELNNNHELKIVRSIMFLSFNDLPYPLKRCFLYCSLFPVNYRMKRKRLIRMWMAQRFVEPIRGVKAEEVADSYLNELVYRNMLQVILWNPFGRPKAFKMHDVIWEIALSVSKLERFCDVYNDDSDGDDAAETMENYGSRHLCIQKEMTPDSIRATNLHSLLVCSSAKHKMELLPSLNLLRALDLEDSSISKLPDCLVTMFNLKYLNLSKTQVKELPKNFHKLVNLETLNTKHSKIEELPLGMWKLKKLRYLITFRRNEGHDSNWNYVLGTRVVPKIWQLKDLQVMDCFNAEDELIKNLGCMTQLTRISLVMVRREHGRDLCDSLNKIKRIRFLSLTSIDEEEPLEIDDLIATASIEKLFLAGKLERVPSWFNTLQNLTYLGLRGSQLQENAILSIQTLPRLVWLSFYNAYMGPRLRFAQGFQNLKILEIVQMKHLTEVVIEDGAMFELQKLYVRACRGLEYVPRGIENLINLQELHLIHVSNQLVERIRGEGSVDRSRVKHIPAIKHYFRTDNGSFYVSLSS
The assay is described as above.

The target of assay [5] is T5, cLuc-IBR5 (Arabidopsis thaliana) (UniProt Q84JU4).
T5 sequence: T1 sequence with S129C
Kind of assay: split reporter; firefly luciferase complementation imaging (LCI) in N. benthamiana leaves; HSP90 or SGT1b on nLuc, IBR5 on cLuc.

In assay [6] the target is T6, IBR5-Myc (Super:IBR5-Myc) in transgenic Arabidopsis plants (Arabidopsis thaliana) (UniProt Q84JU4).
T6 sequence: T1 sequence with S129C
Description: co-IP; total protein of transgenic Arabidopsis plants expressing Super:IBR5-Myc (with or without Super:SGT1b-Flag); anti-Myc immunoprecipitation; blot with anti-HSP90 or anti-Flag.

Positions count from the first letter of the chain named. These are yes or no findings as the source states them, for the method shown. For some of these results: In cells and extracts the contact can be indirect. Some results given as binding are weak or reduced against the parent protein; the word gives no strength. Sequences can lack the tags named with a protein.

B1: TIR domain of RPS4 fused with the pGADT7 vector (domain or fragment, UniProt Q9XGM3 14-175)
chain: PQHQVFINFRGADLRRRFVSHLVTALKLNNINVFIDDYEDRGQPLDVLLKRIEESKIVLAIFSGNYTESVWCVRELEKIKDCTDEGTLVAIPIFYKLEPSTVRDLKGKFGDRFRSMAKGDERKKKWKEAFNLIPNIMGIIIDKKSVESEKVNEIVKAVKTAL
For B1, the binding entry in assay [1] and in assay [2] was “no binding” each time.

B2: TIR domain of SNC1 (yeast two-hybrid prey) (domain or fragment, UniProt O23530 19-182)
chain: RRYDVFPSFRGEDVRDSFLSHLLKELRGKAITFIDDEIERSRSIGPELLSAIKESRIAIVIFSKNYASSTWCLNELVEIHKCYTNLNQMVIPIFFHVDASEVKKQTGEFGKVFEETCKAKSEDEKQSWKQALAAVAVMAGYDLRKWPSEAAMIEELAEDVLRKT
As for B2, in assay [2], the binding entry is “binds”.

B3: HA-Flag-IBR5 (35S:HF-IBR5) in N. benthamiana leaves (protein, UniProt Q84JU4 1-257)
chain: T1 sequence with S129C
Turning to B3, the figures for the binding result in assay [3] and in assay [4] were “binds” and “no binding”, respectively.

B4: TIR domain of RPP4 (yeast two-hybrid prey) (domain or fragment, UniProt F4JNA9 11-175)
chain: RRYDVFPSFSGVDVRKTFLSHLIEALDRRSINTFMDHGIVRSCIIADALITAIREARISIVIFSENYASSTWCLNELVEIHKCYKKGEQMVIPVFYGVDPSHVRKQIGGFGDVFKKTCEDKPEDQKQRWVKALTDISNLAGEDLRNGPTEAFMVKKIANDVSNKL
For the molecule B4, the binding result in assay [2] is given as “no binding”.

B5: SGT1b-nLuc (protein, UniProt Q9SUT5 1-358)
chain: MAKELAEKAKEAFLDDDFDVAVDLYSKAIDLDPNCAAFFADRAQANIKIDNFTEAVVDANKAIELEPTLAKAYLRKGTACMKLEEYSTAKAALEKGASVAPNEPKFKKMIDECDLRIAEEEKDLVQPMPPSLPSSSTTPLATEADAPPVPIPAAPAKPMFRHEFYQKPEEAVVTIFAKKVPKENVTVEFGEQILSVVIDVAGEEAYHLQPRLFGKIIPEKCRFEVLSTKVEIRLAKAEIITWASLEYGKGQSVLPKPNVSSALSQRPVYPSSKPAKDWDKLEAEVKKQEKDEKLDGDAAMNKFFSDIYSSADEDMRRAMNKSFAESNGTVLSTNWKEVGTKKVESTPPDGMELKKWEY
Turning to B5, the binding entry in assay [5] is recorded as “binds”.

B6: SGT1b-Flag (Super:SGT1b-Flag) in Arabidopsis (protein, UniProt Q9SUT5 1-358)
chain: B5 chain
For B6, the binding entry in assay [6] is reported as “binds”.

B7: TIR domain of CHS3 (aa 1-138) fused with the pGADT7 vector (domain or fragment, UniProt Q9FKN7 1-138)
chain: MEPPAARVTPSIKADCSHSVNIICEETVLHSLVSHLSAALRREGISVFVDACGLQETKFFSIKQNQPLTDGARVLVVVISDEVEFYDPWFPKFLKVIQGWQNNGHVVVPVFYGVDSLTRVYGWANSWLEAEKLTSHQS
As to B7, the binding result in assay [1] and in assay [2] was “binds” in each case.
